Results from the supplement of paper PMC3334620.
The full ranking holds about 33,000 sequences; the median of “E-score (-0.5 to 0.5)” is about -0.04, and the highest 2% start at about 0.36. The list shows a part of the results.

Target: T1, Hmlalpha2 (UniProt P0CY09)
T1 sequence: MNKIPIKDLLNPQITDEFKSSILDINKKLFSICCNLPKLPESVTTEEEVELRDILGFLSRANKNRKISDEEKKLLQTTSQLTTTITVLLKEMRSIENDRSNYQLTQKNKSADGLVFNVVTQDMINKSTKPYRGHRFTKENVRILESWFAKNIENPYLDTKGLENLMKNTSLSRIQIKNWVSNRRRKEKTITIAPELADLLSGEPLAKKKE
Assay: PBM E-score (8-mer binding enrichment) (E-score (-0.5 to 0.5)); higher = stronger / more preferred TF binding; most listed sequences are background and not binding sites
Conditions: protein concentration: 200 nM; construct: GST-full length
Summary of the method: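 E-scores (a modified Wilcoxon-Mann-Whitney statistic) were assigned by the Universal PBM Analysis Suite to every ungapped eight-base word pooled with its reverse complement. The input came from universal all-10-mer Agilent arrays made double-stranded by primer extension and probed with GST-tagged yeast transcription factors at about 100-200 nM. Fluorescent anti-GST detected bound protein, and masliner normalised the scans.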

Sequence | PBM E-score
TACGCCAA | -0.0474
AAAGGGCG | 0.109
CCCGCCAC | -0.152
CGATACAC | 0.119
CTTCGTCA | 0.0527
CGCCGAGA | -0.302
CCCGATTC | -0.0455
AACAAAGT | 0.185
ATAAATCC | -0.0583
ATTTGAAC | 0.229
ACACTGAC | 0.164
CGTCAGCA | -0.0588
AGTACTCC | -0.31
ACACGGGC | 0.325
AACAGTCT | 0.0162
AATTTTCT | 0.0164
GATCTAAC | 0.0316
AATATATG | 0.105
GCTGCCTA | -0.0846
ACGGGTGC | -0.136
AAATCTAC | 0.244
CGCCTTTA | -0.105
CAATTATA | 0.119
CCAGTCTA | -0.196
GCTTGTGA | -0.0542

Sequence | PBM E-score
CGGTAGTA | 0.108
ACACCTAG | -0.163
CGGCACGA | -0.0638
ACCTGTCA | -0.078
CACCTATG | -0.0895
ATAGATGG | -0.225
CTGCTCTA | 0.039
GCGTGCTA | 0.0715
CATGTTCC | 0.221
AAAGCGGT | 0.0168
ATGTTCGC | 0.0726
CACGCTGC | 0.0898
ACTTAACG | 0.14
CCTTCGAC | -0.0842
GATCTCTA | -0.206
CAAGAGGC | -0.133
AGGTCCAC | -0.29
GAGCGGCC | -0.185
ACAAGCGA | 0.112
CCTGATAC | -0.0102
CAGTGTTC | -0.0228
AAATCTGT | 0.0323
AAAATAGT | 0.0776
AGCCCAAG | -0.35
CCACTGCG | -0.243

Sequence | PBM E-score
ATCTCGTC | -0.0442
ACCCCCGG | -0.368
GGAACACA | 0.162
AAGAGCGC | -0.0388
CGTTAAAA | 0.272
CGGGTAAG | -0.133
ACTATCCC | -0.386
GCACCTCC | -0.361
CTTGGAGC | -0.214
GCCGTATA | 0.0926
CATGGAGC | -0.0239
AGGCGGCG | -0.0131
CACTGCCC | -0.128
CGGCCGTC | -0.00449
CATCCGAA | 0.0505
AAAGCGGA | 0.0251
GGGTAGCA | -0.177
TCACCAGA | -0.263
GGTCGTTA | 0.0728
CCCCGCTA | -0.237
AGAGACCG | -0.163
ATTGTCAC | 0.132
GCCCAATA | -0.0408
CCTAACCA | 0.006
GGGACGAC | -0.175

Sequence | PBM E-score
TACCATAA | 0.0891
AGCGACGA | -0.192
TACAATAA | 0.179
GTGCCACA | -0.182
AAAGGTCA | 0.0116
ATGTTGCA | 0.24
ATCTTACA | 0.325
TTGGGAAA | 0.0921
CTCATCCA | 0.00492
CCCGGTAG | -0.152
AGAAAAGC | -0.0875
GGCGCACA | -0.17
GACGAGAA | 0.0881
TAATATCA | 0.194
CGTAAAGC | 0.305
AGGACACT | -0.338
ACCGAGCC | -0.211
CCAATCGG | -0.233
TACTAGGA | 0.1
AAATCTTA | 0.191
CTTTCGTC | -0.0195
CGGCACTA | -0.285
CTGACATA | 0.191
ACTATTCG | 0.044
CCAAGAAG | -0.0027

Sequence | PBM E-score
CCGCATAA | -0.111
GCCGACGA | -0.15
ACGTAGAC | 0.158
CGATTCGC | 0.0691
GATTGCAA | -0.0333
ACAGTAGC | -0.0946
AGATGCGC | -0.136
AGAGGTCC | -0.273
CTGAGAGC | -0.196
ACTATAAC | 0.139
CGAACTAC | 0.108
CGTCATAC | 0.115
GAGAGAGA | -0.166
GCCTTTAA | 0.0307
AATTCGGC | -0.138
AGACAACT | 0.0402
ATATGTGG | 0.126
CTGCGCGA | -0.0912
GCTTCGAA | -0.0348
CTTCAGGC | -0.198
CAAGGGTG | -0.153
GAGGTGTA | 0.155
CTAGAGAG | -0.259
CTACCGTC | -0.296
GTGTAAGA | 0.401

Sequence | PBM E-score
ACCCCTTA | -0.0706
GGAACGAA | -0.0762
CGATTAGC | -0.0638
AACGGATC | 0.116
ATCATTCA | 0.113
CGCTAGAG | -0.227
GCTGCAGC | -0.305
TAAGGTAA | 0.132
GCGGATTA | -0.0224
CGGGTTAC | 0.0302
ACTTTGCT | 0.0124
CCCGCGTC | -0.0309
TCCTTTAA | -0.023
GAGTAGCC | -0.305
CGAGTGAC | -0.274
CCGCGAGC | -0.348
GCGTTACC | -0.0424
AATGTGCC | -0.191
GGGAGACA | -0.0526
GTGTCGCA | 0.0153
GCGACACA | 0.00146
CACCAGTC | -0.173
ATCGTAGG | -0.0603
ATATAATG | 0.226
ACTGTGGG | -0.0995

Sequence | PBM E-score
AGATTGCA | 0.0357
CCGGGCAA | -0.286
CGTAGATA | 0.232
AGTGAAGC | -0.182
AAGGGGGC | -0.251
AAATCTGG | -0.125
AGCTGAAC | -0.157
GGTAAACA | 0.333
AAAGCATC | 0.0202
TACTCGAA | 0.145
AAGTAAGG | 0.007
AGTTCCCC | -0.205
AATCGACC | -0.126
GTGATCAC | -0.229
ATGGGGAA | -0.121
GCCCCTCC | -0.277
AATGGGTA | 0.184
CCCAGTAC | -0.155
CCTGCATA | -0.171
AGGACTTA | -0.168
AACGGTAT | -0.0341
CGCACAGC | -0.0502
CGCGGATC | -0.268
GACTAAAC | -0.0435
CAAGCGTG | 0.13

Sequence | PBM E-score
TCTATACA | 0.209
GAAAGATA | 0.00594
GGTGGCCA | -0.251
AATCCGAC | -0.00527
AGTGGGCG | -0.0157
CGTACTAA | 0.244
CTGTACTC | -0.175
CGACTGAA | -0.261
ACCCCCCA | -0.207
CGCTCCGA | -0.164
ACGCTTCC | -0.0123
ACAATGGA | 0.122
CGATTAGA | 0.041
GGTACCTA | -0.0174
AGACTAGG | -0.258
AACCTCGT | 0.133
ATCTTAGG | -0.215
CCCACAGA | -0.103
GTGGTGGA | -0.0615
CGGATAGA | -0.0391
ATCAGATA | -0.0109
GCCCAGCA | -0.202
CAGAGACG | -0.083
AGTGAGAG | -0.0314
ACTACCAA | 0.0425

Sequence | PBM E-score
AGATAACC | -0.221
ACCGCGGA | -0.151
AGGAAGAA | -0.122
AGCTTTAC | 0.19
ACGGGGAC | -0.273
GAAAGAAC | 0.0333
CGTTGACA | 0.247
CTTGGCAC | -0.0576
GCCAGAAC | -0.0733
ACGTTTGA | -0.00079
ATATAGCC | 0.0755
CGGGTAGC | -0.251
CTTGGCCA | -0.15
ATCTTCCA | 0.0369
ATATCTAC | 0.136
GCCTGTAA | 0.254
CGGTTGTC | 0.0856
GCGACTAA | 0.0525
ATTACCTA | 0.282
